The target in assay [1] is T1, FN-789 expressed across the membrane of CHO-K1 cells (human, UniProt P02751-1 1173-1446).
T1 construct: domain: FN-7, FN-8 and FN-9; ED-B negative; also called CHO-789 cells
In words: immunofluorescence microscopy, FITC-labelled DE2-Fc on CHO-789 cells.

Assay [2] concerns the target T2, FN-789 (containing FN-7, FN-8 and FN-9) (human, UniProt P02751-1 1173-1446, limits assumed).
T2 construct: domain: FN-7, FN-8 and FN-9; Expressed and purified 'in the same manner' as ED-B (E. coli, C-terminal six-histidine tag implied)
In words: ELISA, antigen coated, HRP-labelled rabbit anti-human IgG. A general note: An ELISA detects its analyte on a solid surface through an enzyme-linked reagent.

B1: DE2-Fc (Fc fusion)
chain: EVQLLESGGGLVQPGGSLRLSCAASGFTFSSYAMSWVRQAPGKGLEWVSRISPSGSSTYYADSVKGRFTISRDNSKNTLYLQMNSLRAEDTAVYYCARRMSYFDYWGQGTLVTVSSGGGGSGGGGSGGGGSSQSALTQPASVSGSPGQSITISCSGDSLGIFRSGMVSWYQQHPGKAPKLMIYLPTSRPSGVSNRFSGSKSGNTASLTISGLQAEDEADYYCQSWDGRQPVFGGGTKLTVLGAAA[omitted - human IgG1 Fc]
notes: also called DE2 antibody; DE2 single-chain antibody
On to B1, for which the binding result is “no binding (tested: 50 ng/µl)” in assay [1] and “no binding” in assay [2].

Source of the values: patent US20220089709A1 (HEFEI LIFEON PHARMACEUTICAL, published 2022).
